# From the supplement of paper PMC3334620
# Whole data set: some 33,000 sequences, median “E-score (-0.5 to 0.5)” near -0.016, cut for the highest 2% near 0.31. Some of the results follow.
# Molecular target: Cst6 (UniProt P40535)
# Assay: PBM E-score (8-mer binding enrichment) (E-score (-0.5 to 0.5)); higher = stronger / more preferred TF binding; most listed sequences are background and not binding sites
# Conditions: protein concentration: 200 nM; construct: GST-DNA-binding domain
# Experimental: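 Universal 'all 10-mer' protein binding microarrays (Agilent AMADID 015681) probed with GST-tagged S. cerevisiae TFs (full-length or DBD) made by in vitro transcription/translation (PURExpress), about 100-200 nM. Bound TF was detected with fluorescent anti-GST. Each ungapped 8-mer (which stands for itself and its reverse complement) is scored by the PBM enrichment score (E-score), a modified Wilcoxon-Mann-Whitney statistic from -0.5 to +0.5, computed with the Universal PBM Analysis Suite. Scale: above 0.35 generally sequence-specific binding.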
row,Sequence,PBM E-score
1,GACAATAA,0.23
2,CTAGTAAC,0.0118
3,CGACACTC,0.00556
4,GCGGGTCC,-0.377
5,GCTATTCC,-0.0713
6,CGTCCTTA,-0.0944
7,AAAGAGCG,0.0544
8,AACAAGCC,-0.0318
9,GCCCCACA,-0.172
10,ACATCTGG,-0.0113
11,GAAGGAGC,-0.358
12,CTCCACGA,-0.0356
13,GAATTGAC,0.0822
14,ATGCCTTG,0.0187
15,CCAGGGCG,-0.186
16,AATATAGG,0.212
17,TCGAACAA,0.233
18,CGTGGGAC,-0.166
19,CTGGCTCA,-0.00844
20,GCGTATAA,0.152
21,GTAGACAA,0.0542
22,CATATTCG,0.054
23,AGTTTGTC,0.0452
24,ATCGCTAC,-0.0929
25,ACGGTATG,0.13

row,Sequence,PBM E-score
1,AGTTACCG,0.0986
2,TGAACCAA,0.184
3,AAATCAAA,0.153
4,ATCTATAG,0.0424
5,CTGATCCA,-0.0615
6,ACATCAAG,0.207
7,CGCGCTCC,-0.115
8,GAGTGCTA,-0.245
9,AACTCCGG,-0.00288
10,GTGTACTA,0.0551
11,GTCGGAAA,0.129
12,ATTCTACG,0.154
13,GCGCCGCC,0.25
14,GTAAGGTA,0.123
15,ACAGCGCC,-0.00011
16,AAGACCTA,-0.126
17,CTCGGGTA,-0.0685
18,ACAGGTCA,-0.105
19,CGCCCGTC,-0.0631
20,AATACGGG,-0.0401
21,GAGTTCCC,-0.282
22,AGAGTATA,-0.0659
23,ATGAGCCG,0.0382
24,ACCTTCTG,-0.00644
25,AGAGGAAT,-0.0707

row,Sequence,PBM E-score
1,CAGTTCTC,-0.0846
2,GATGCGTA,0.0467
3,CAAGCTTG,-0.116
4,ATGCCCTG,-0.0453
5,CTATCTCA,0.0196
6,AGACTTTC,-0.0766
7,AAACCCCC,-0.35
8,ACATAATC,0.267
9,CAACAGTA,-0.0866
10,AATATTCA,0.134
11,AAGTCCCA,-0.276
12,CTGAGTGA,0.13
13,AGTAGATC,-0.13
14,ATTCCCCG,-0.124
15,CACTGCTG,-0.0596
16,CATTTGAG,0.102
17,AATTTCAT,0.18
18,CGGGACCA,-0.294
19,AAAAAGCG,0.092
20,ACCGACAA,0.133
21,GGGGCTCA,-0.238
22,CACTTACA,0.173
23,CCCTATCC,-0.244
24,AAAGAAAT,0.269
25,GCTGTCGA,-0.0648

row,Sequence,PBM E-score
1,CACCTCTC,-0.104
2,CTAAGATA,0.0108
3,CAGTTCGG,-0.00485
4,ATGTGTCG,0.00913
5,CGTGAGCC,-0.0798
6,GAGCCGGC,-0.177
7,TCATGAAA,0.174
8,AGTTTATG,-0.0131
9,CACAAATC,0.066
10,CATTGGTC,-0.245
11,AACGAAAG,0.0561
12,GGGGTGGA,-0.272
13,AAAGTTCC,-0.175
14,GTTTTCGA,0.134
15,AATCTTAT,0.147
16,AACATGTA,0.183
17,TCTACAAA,0.0566
18,AATGTAGT,0.0175
19,ACTTGAGA,0.00386
20,ACCTTGGG,-0.0593
21,AGGTGGCG,-0.126
22,TGTGTGAA,0.152
23,AGCAATAC,0.0323
24,ACTTTCCG,-0.109
25,ATCAATTA,0.302

row,Sequence,PBM E-score
1,CTTTGAAC,-0.165
2,AAGTCAAG,-0.114
3,ATGTTCTG,0.0715
4,CCATTCCG,-0.112
5,TCAAACAA,0.172
6,CACTTCAC,0.00698
7,AGCGCAAC,-0.0272
8,CGGATTGC,-0.0601
9,ATTAAGAA,0.193
10,GGGTACCA,-0.276
11,ATCGCCTA,-0.115
12,ACAGAGTA,0.0647
13,GAGAAATA,0.0985
14,AATAAGGC,0.175
15,ATCCAGAA,0.108
16,GGACCTCC,-0.265
17,ATTCTCCC,-0.0452
18,CAGTCTGA,-0.0415
19,CGGTCGAA,-0.156
20,GCATTAGC,-0.0756
21,AAATCGTT,0.131
22,CCCTGCCA,-0.122
23,CCAGGCAG,-0.206
24,ACAAATAG,0.214
25,CACCCCAA,0.0178

row,Sequence,PBM E-score
1,CCCGTTTA,-0.0448
2,ACGTTTTA,0.213
3,GACTATAC,-0.0569
4,TACCTTAA,-0.0137
5,CAGTCAGA,-0.099
6,CCGGGGGC,-0.359
7,ACAGAGCT,-0.198
8,CCGTATAA,0.225
9,AAGTAGGT,-0.122
10,GTGTAAAA,0.165
11,CTCCTATC,-0.222
12,ATGCGGGA,0.123
13,ATTTTAAA,0.308
14,GGTCTATA,-0.102
15,GTTGGGCA,-0.0664
16,CTTGCCAC,0.0533
17,AGTGCTTA,-0.0836
18,AGTGGGCC,-0.327
19,GGTATTGA,-0.137
20,GCCTTTAC,0.0676
21,AATACACT,0.192
22,ACAATACG,0.138
23,CGACTTCA,-0.0782
24,ACACACTG,-0.0897
25,ACCATCGC,0.119

row,Sequence,PBM E-score
1,ACTTTTGA,0.224
2,GGAGAGTA,-0.246
3,TCTTAGAA,0.214
4,CACTTATA,0.183
5,ACTGCAAG,-0.111
6,CTGCCAGC,-0.127
7,CCAGAGTA,-0.113
8,CCGAGGAA,-0.104
9,ACGTGTCT,0.15
10,AATCCACT,0.0752
11,GCCTCGCA,0.189
12,CATGTAAG,0.151
13,CTAAGGCC,-0.168
14,CACAAGTA,-0.149
15,AACCGCTC,-0.0305
16,AGAGATCG,-0.0567
17,AGAAGCAA,0.172
18,AGGATTGG,-0.0299
19,CCCAACCG,-0.157
20,TCAGCTGA,0.152
21,ACTTTGCG,0.0878
22,ATGAGCAG,-0.0198
